{
  "source": "patent US7550150B2",
  "about": "“Methods of treating or preventing a disease, disorder or condition associated with a viral infection” (Barros Research Institute, priority 2005, dated 2009)",
  "key": {"[1]": {"conditions": "mouse, in vivo, ip, 75 mg/kg/day"}, "[2]": {"conditions": "mouse, in vivo, ip"}, "[3]": {"conditions": "mouse, in vivo, ip, 75 mg/kg/day", "remark": "listed apart in the source"}, "[4]": {"conditions": "mouse, in vivo, ip, 75 mg/kg/day", "remark": "listed apart in the source"}, "[5]": {"conditions": "mouse, in vivo, ip, 75 mg/kg/day", "remark": "listed apart in the source"}},
  "note": "Read-outs that look alike come from different tables or passages of the source.",
  "data": [
    {"smiles": "NC(=O)c1ncn([C@@H]2O[C@H](CO)[C@@H](O)[C@H]2O)n1", "note": "[Ribavirin]", "values": [
      {"measurement": "Tox Controls Mean Host Weight Change", "setting": "[1]", "result": -0.8, "unit": "g"},
      {"measurement": "Tox Controls Mean Host Weight Change", "setting": "[2]", "result": -0.9, "unit": "g"},
      {"measurement": "Tox Controls Mean Host Weight Change", "setting": "[3]", "result": -0.7, "unit": "g"},
      {"measurement": "Tox Controls Mean Host Weight Change", "setting": "[4]", "result": 0.6, "unit": "g"},
      {"measurement": "Tox Controls Mean Host Weight Change", "setting": "[5]", "result": 2.4, "unit": "g"}
    ]}
  ]
}
